Assay results as given in article PMC4336329 (PLoS ONE, 2015).
Out of some 310,000 compounds screened, about 14,000 (4.5%) showed an effect of 50% or more. The effect is printed as a negative number. This is one part of the list.

What follows are compounds tested against human ether-à-go-go-related gene (hERG) potassium channel (human, UniProt Q12809) (assay: primary screen, population patch clamp on CHO cells stably expressing hERG).
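Note: peak tail current of the secondary pulse compared with the same well before compound.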

Sequence of human ether-à-go-go-related gene (hERG) potassium channel (Q12809 whole entry, looked up): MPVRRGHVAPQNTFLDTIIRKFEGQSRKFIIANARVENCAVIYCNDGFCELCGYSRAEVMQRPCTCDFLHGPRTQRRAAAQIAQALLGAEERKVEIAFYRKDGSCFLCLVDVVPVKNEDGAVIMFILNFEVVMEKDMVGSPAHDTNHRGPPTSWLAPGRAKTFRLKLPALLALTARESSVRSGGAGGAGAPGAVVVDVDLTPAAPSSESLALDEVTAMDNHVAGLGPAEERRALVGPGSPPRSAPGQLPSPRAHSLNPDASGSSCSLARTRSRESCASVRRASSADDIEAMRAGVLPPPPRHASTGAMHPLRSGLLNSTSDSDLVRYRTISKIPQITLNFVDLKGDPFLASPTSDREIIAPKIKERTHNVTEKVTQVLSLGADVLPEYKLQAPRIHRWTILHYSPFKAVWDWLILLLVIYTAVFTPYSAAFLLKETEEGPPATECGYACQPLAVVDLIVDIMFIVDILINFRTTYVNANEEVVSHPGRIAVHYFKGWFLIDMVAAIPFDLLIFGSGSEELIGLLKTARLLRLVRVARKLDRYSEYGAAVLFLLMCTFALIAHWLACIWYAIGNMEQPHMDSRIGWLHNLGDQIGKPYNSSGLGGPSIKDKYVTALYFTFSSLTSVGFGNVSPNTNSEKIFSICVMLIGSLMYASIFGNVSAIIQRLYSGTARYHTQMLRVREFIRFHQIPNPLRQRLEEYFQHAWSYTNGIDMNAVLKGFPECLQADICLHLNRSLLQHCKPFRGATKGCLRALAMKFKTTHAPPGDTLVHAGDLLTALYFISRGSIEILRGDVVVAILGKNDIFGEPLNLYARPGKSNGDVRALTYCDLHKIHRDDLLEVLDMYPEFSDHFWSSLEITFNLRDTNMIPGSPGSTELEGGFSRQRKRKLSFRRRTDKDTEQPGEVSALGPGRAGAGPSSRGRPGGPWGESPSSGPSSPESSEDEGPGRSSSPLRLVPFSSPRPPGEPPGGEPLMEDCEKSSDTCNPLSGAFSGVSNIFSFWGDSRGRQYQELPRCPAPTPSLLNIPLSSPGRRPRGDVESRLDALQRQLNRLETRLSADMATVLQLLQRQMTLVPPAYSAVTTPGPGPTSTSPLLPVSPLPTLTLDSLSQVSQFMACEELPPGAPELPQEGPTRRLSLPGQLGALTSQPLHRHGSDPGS

| SMILES | hERG current change (%, negative = inhibition) at 10uM |
| --- | --- |
| Cc1cc(C(=O)Nc2c(C)n(C)n(-c3ccccc3)c2=O)on1 | 11.6% |
| Cc1nc2c3cc(F)ccc3n(Cc3ccccc3)c2s1 | 4.24% |
| COc1cc2c(cc1OC)C(c1ccc(C)o1)CC(=O)N2 (stereo not shown) | -4.15% |
| O=C(COC(=O)c1cnccn1)Nc1cccc2ccccc12 | -14.6% |
| CC(C(=O)Nc1sc2c(c1C#N)CCCCC2)N1C(=O)c2ccccc2C1=O (stereo not shown) | -14.1% |
| CCOc1ccccc1CN1CCN(Cc2[nH]c3ccccc3c2C)CC1CCO (stereo not shown) | -62.3% |
| C=CCNC(=O)COc1ccc(Oc2ccccc2)cc1 | -47.5% |
| Cc1cccc(NC(=O)CCCNC(=O)c2ccc(Cl)cc2)n1 | 11.8% |
| O=C1C=C(NC2CCCC2)CC(c2ccccc2)C1 (stereo not shown) | -3.55% |
| CC(=O)NC(CC(=O)N(Cc1ccccc1)c1cccc(C)c1)c1ccccc1 (stereo not shown) | -14.2% |
| COc1cc2c3nc4n(c(=O)c3n(CC(=O)NCC3CCCO3)c2cc1OC)CCS4 (stereo not shown) | 19.2% |
| COc1ccc(C(CNC(=O)COc2ccccc2OC)N2CCCCC2)cc1 (stereo not shown) | -19.5% |
| Cc1cccc(NC(=O)c2cc(-c3c(C)cc(C)cc3O)n[nH]2)c1 | 19.6% |
| CC(=O)N/N=C/c1cc(C(C)C)cc(/C=N/NC(C)=O)c1O | 22.3% |
| CCN1CCN(C(=O)c2cc3cc4ccc(OC)cc4nc3s2)CC1 | -23.2% |
| COc1ccc(NC(C)C(=O)N/N=C/c2ccccc2OCc2ccc(Br)cc2)cc1 (stereo not shown) | 2.49% |
| Cc1ccc(C#N)c(SCc2ccccc2[N+](=O)[O-])n1 | 2.72% |
| CCOc1ccc(S(=O)(=O)N(C)CC(=O)N2CCCC2)cc1 | 12.3% |
| NC(=O)C1(N2CCCCC2)CCN(C(=O)c2cccn3c(=O)c4cc(Cl)ccc4nc23)CC1 | -30.1% |
| CCC(CC)NC(=O)c1ccc(NS(=O)(=O)c2ccc3[nH]c(=O)[nH]c3c2)cc1 | 12.3% |
| CC1=C(C)CC(C(=O)NNC(=O)c2csc(C)c2C)C(C(=O)O)C1 (stereo not shown) | 11.5% |
| O=C(CC1C(=O)NCCN1CC1CCCCC1)NCc1cc(F)ccc1F (stereo not shown) | 1.77% |

| SMILES | hERG current change (%, negative = inhibition) at 10uM |
| --- | --- |
| CCOc1ccc(Br)cc1C(=O)N/N=C/c1ccccn1 | -40.8% |
| Cc1cccc(NC(=O)c2ccc3nc(N4CCOCC4)sc3c2)c1C | -34.7% |
| O=C(NCc1nnc(SCC(=O)N2CCN(c3ccccc3)CC2)o1)c1c(F)cccc1F | 5.94% |
| O=C(C1=NN[C@@H]2C(=O)N(c3ccccc3C(F)(F)F)C(=O)[C@H]12)C(c1ccccc1)c1ccccc1 | 1% |
| CCNc1nc(Cl)nc(N(NC(C)=O)C(C)CC)n1 (stereo not shown) | 14.9% |
| COc1ccc(NC(=O)Cc2c(C(=O)O)n(C)c3ccccc23)cc1OC | 15% |
| COC(=O)[C@@]12CCCCN1[C@H](c1ccc(-c3ccc(OC)cc3)cc1)[C@H]1C(=O)N(C)C(=O)[C@H]12.O=C(O)C(F)(F)F | 7.9% |
| O=C(Nc1cccc2ccccc12)c1ccc([N+](=O)[O-])cc1 | 0.571% |
| CCn1nc(NC(=O)C(C)(C)C)c2cc3cccc(C)c3nc21 | 4.7% |
| CCN(CC)CCn1c2c(c(SCC(=O)Nc3nc4ccccc4s3)nc1=O)CCCC2 | -60.2% |
| O=C(c1cccc([N+](=O)[O-])c1)N1CCN(S(=O)(=O)N2CCCCC2)CC1 | -15.2% |
| Cc1cc(C)cc(N=C(NO)c2cccc([N+](=O)[O-])c2)c1 | 4.65% |
| CC(C)c1ccc(NC(=O)c2ccc3snnc3c2)cc1 | -0.648% |
| Cn1cccc1Cc1nnc(SCC(=O)Nc2nc3ccccc3s2)n1CCc1ccccc1 | 8.09% |
| Brc1ccc(-c2csc(Nc3nc(-c4ccc(Br)cc4)cs3)n2)cc1 | 15% |
| Cc1cnc(NC(=O)CSc2ccccc2)s1 | 3.88% |
| COc1cccc(Oc2coc3c(CN4CCOCC4)c(O)ccc3c2=O)c1 | -5.65% |
| C=CCn1c(CNc2ccc(C)cc2)nnc1SCC(=O)N/N=C/c1ccc(O)cc1 | -11.4% |
| Cc1ccc(C2CC(C(F)(F)F)n3nc(C(=O)NCc4ccco4)cc3N2)cc1 (stereo not shown) | 19% |
| COC(=O)c1c(C)[nH]c(C(=O)OCC(=O)NCC(C)C)c1C | 3.37% |
| CS(=O)(=O)Nc1cccc(-c2cn3ccccc3n2)c1 | -3.21% |
| CCO[C@@H]1OC(C(=O)Nc2ccccc2)=C[C@H](C2CC2)[C@H]1CCCO | -10.4% |

| SMILES | hERG current change (%, negative = inhibition) at 10uM |
| --- | --- |
| Cc1nc2ccc(NC(=O)CCC3CCCC3)cc2s1 | -21.3% |
| O=C(Nc1ccc2c(c1)C(=O)N(c1ccccc1)C2=O)C1CCCO1 (stereo not shown) | -15.5% |
| Cc1oc(-c2ccccc2F)nc1CS(=O)(=O)CC(=O)N1CCN(Cc2ccccc2)CC1 | -3.31% |
| COc1cccc(-c2nc(CS(=O)(=O)CC(=O)NCc3ccc4c(c3)OCO4)c(C)o2)c1 | -11.1% |
| Cc1ccc(NC(=O)CN2C(=O)S/C(=C\c3cccn3C)C2=O)cc1 | 1.22% |
| COc1ccc(-c2ccc3c(N)c(C(=O)c4cccc(OC)c4)sc3n2)cc1 | -0.00592% |
| O=C(Cc1ccccc1)Nc1ccc2[nH]ncc2c1 | 21.6% |
| Cc1cccc(OCC(=O)NC2CC(C)(C)NC(C)(C)C2)c1 | -31.1% |
| COc1ccc(OC)c(NC(=O)CCNS(=O)(=O)c2cc(Br)cnc2N)c1 | -14.9% |
| CC(C)=CCC12Oc3cc(O)ccc3C1(O)Oc1cc(O)c([C@H]3C=C(C)CC(c4ccc(O)cc4O)[C@H]3C(=O)c3ccc(O)cc3O)c(O)c1C2=O (stereo partly shown) | -5.25% |
| O=C(O)/C(=C\c1ccco1)NC(=O)c1ccccc1 | 15.9% |
| CCC1(C)CC2(CCCN(CCC(=O)c3ccccc3)C2)CCO1.Cl (stereo not shown) | -10.3% |
| COc1ccccc1NC(=O)COc1ccc(/C=N/NC(=O)c2cccnc2)cc1 | 16.6% |
| COCCNC(=O)C1CCCN(c2nn3c(=O)cc(C)nc3s2)C1 (stereo not shown) | -0.14% |
| O=S(=O)(Nc1ccncc1)c1cc(Cl)ccc1Cl | 17.1% |
| COc1ccc2oc(=O)c(-c3ccccc3C(=O)N3CCOCC3)cc2c1 | -15.8% |
| O=C(c1csc2c1CCCCC2)N1CCC2(CC1)OCCO2 | 9.29% |
| O=C(CN1C(=O)NC2(CCCC2)C1=O)Nc1ccc(C(F)(F)F)cc1 | 7.98% |
| COc1ccc(CN([C@H](C)CO)S(=O)(=O)N(Cc2ccccc2)[C@H](CO)C(C)C)cc1 | -4.22% |
| Cc1ccc(C)n1-c1ccccc1N1CCCCC1 | 10.4% |
| O=C(NC1CC2CCCC(C1)N2C(=O)Nc1ccccc1)c1ccncc1 (stereo not shown) | 0.052% |
| CC(C)C[C@H]1CN=C(Nc2ccccc2)N1CC1CCCCCC1 | -60.6% |

| SMILES | hERG current change (%, negative = inhibition) at 10uM |
| --- | --- |
| CCOC(=O)c1ccc2ncc(C(=O)OCC)c(NCCCN3CCOCC3)c2c1 | -47.3% |
| COc1ccc(-n2nc(C(=O)NCC(=O)Nc3cc(Cl)c(OC)cc3OC)c3ccccc3c2=O)cc1 | 4.89% |
| COc1ccc(CCC(=O)Nc2ccc(Cn3ccnc3)cc2)cc1 | -0.642% |
| COC(=O)c1cc(S(=O)(=O)n2nc(C)cc2C)c(Cl)cc1Cl | 8.81% |
| COc1ccc(C(=O)CCN2CCc3cc(OC)c(OC)cc3C2)cc1.Cl | -69.1% |
| O=C(CCN1C(=O)S/C(=C\c2cccs2)C1=O)Nc1nccs1 | 9.41% |
| Cc1ccc(S(=O)(=O)N2CCCC2C(=O)Oc2ccccc2)cc1 (stereo not shown) | -4.02% |
| NC(=O)CCC(NS(=O)(=O)c1ccc(Cl)cc1)C(=O)NCc1ccccc1 (stereo not shown) | -11.5% |
| CCOC(=O)C1=C(N)n2c(s/c(=C\c3ccco3)c2=O)=C(C(=O)OC(C)C)C1c1ccco1 (stereo not shown) | 3.99% |
| CCCn1c(=O)[nH]c(=O)c2c1nc(-c1ccc(OC)c(Br)c1)n2CCOC | -20.1% |
| S=C(Nc1ccc(Br)cc1)NC1CCN(Cc2ccccc2)CC1 | -33% |
| COc1ccc(NC(=O)CNC(=O)c2ccc([N+](=O)[O-])cc2)cc1 | -13.7% |
| COc1ccc(N(C(=O)CCC(=O)Nc2cc(C)on2)C(C(=O)NC2CCCC2)c2ccco2)cc1 (stereo not shown) | 5.34% |
| CCOCCn1c(SCc2ccc(C)cc2)nc2c1c(=O)[nH]c(=O)n2C | 14.5% |
| O=C(N/N=C/c1ccc(N2CCOCC2)cc1)C1CC1 | 1.13% |
| Cc1ccc(C)c(-c2nnc(NC(=O)c3ccco3)o2)c1 | -2.48% |
| OC(c1ccccc1)c1cccnc1 (stereo not shown) | 17.7% |
| CCOC(=O)c1ccc(NC(=O)c2ccc(NC(=O)C3CCCO3)cc2)cc1 (stereo not shown) | 17% |
| CCOc1ccc2[nH]c(=O)c(CN(CCO)C(=O)c3ccc(Br)cc3)cc2c1 | -3.2% |
